Measurements as given in article PMC5035082.
These are yes or no findings as the source states them, for the method shown. In cells and extracts the contact can be indirect. Some results given as binding are weak or reduced against the parent protein; the word gives no strength. For some assays here: Where a sequence is shown, tags or fusion partners need not be part of it. Each block holds one molecule with its values, some of them ahead of it.

By UniProt entry, the sequences of proteins in these tests, tags left out.
UniProt Q94901: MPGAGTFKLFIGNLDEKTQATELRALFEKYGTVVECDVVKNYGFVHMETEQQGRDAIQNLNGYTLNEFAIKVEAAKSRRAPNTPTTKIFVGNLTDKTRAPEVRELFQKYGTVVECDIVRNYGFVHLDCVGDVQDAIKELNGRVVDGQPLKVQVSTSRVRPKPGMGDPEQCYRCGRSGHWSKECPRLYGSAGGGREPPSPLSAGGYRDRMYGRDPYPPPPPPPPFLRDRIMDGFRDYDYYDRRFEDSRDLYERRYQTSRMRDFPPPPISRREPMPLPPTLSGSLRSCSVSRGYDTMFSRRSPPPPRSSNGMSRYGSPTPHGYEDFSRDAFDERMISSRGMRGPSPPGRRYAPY
UniProt Q7PLI2: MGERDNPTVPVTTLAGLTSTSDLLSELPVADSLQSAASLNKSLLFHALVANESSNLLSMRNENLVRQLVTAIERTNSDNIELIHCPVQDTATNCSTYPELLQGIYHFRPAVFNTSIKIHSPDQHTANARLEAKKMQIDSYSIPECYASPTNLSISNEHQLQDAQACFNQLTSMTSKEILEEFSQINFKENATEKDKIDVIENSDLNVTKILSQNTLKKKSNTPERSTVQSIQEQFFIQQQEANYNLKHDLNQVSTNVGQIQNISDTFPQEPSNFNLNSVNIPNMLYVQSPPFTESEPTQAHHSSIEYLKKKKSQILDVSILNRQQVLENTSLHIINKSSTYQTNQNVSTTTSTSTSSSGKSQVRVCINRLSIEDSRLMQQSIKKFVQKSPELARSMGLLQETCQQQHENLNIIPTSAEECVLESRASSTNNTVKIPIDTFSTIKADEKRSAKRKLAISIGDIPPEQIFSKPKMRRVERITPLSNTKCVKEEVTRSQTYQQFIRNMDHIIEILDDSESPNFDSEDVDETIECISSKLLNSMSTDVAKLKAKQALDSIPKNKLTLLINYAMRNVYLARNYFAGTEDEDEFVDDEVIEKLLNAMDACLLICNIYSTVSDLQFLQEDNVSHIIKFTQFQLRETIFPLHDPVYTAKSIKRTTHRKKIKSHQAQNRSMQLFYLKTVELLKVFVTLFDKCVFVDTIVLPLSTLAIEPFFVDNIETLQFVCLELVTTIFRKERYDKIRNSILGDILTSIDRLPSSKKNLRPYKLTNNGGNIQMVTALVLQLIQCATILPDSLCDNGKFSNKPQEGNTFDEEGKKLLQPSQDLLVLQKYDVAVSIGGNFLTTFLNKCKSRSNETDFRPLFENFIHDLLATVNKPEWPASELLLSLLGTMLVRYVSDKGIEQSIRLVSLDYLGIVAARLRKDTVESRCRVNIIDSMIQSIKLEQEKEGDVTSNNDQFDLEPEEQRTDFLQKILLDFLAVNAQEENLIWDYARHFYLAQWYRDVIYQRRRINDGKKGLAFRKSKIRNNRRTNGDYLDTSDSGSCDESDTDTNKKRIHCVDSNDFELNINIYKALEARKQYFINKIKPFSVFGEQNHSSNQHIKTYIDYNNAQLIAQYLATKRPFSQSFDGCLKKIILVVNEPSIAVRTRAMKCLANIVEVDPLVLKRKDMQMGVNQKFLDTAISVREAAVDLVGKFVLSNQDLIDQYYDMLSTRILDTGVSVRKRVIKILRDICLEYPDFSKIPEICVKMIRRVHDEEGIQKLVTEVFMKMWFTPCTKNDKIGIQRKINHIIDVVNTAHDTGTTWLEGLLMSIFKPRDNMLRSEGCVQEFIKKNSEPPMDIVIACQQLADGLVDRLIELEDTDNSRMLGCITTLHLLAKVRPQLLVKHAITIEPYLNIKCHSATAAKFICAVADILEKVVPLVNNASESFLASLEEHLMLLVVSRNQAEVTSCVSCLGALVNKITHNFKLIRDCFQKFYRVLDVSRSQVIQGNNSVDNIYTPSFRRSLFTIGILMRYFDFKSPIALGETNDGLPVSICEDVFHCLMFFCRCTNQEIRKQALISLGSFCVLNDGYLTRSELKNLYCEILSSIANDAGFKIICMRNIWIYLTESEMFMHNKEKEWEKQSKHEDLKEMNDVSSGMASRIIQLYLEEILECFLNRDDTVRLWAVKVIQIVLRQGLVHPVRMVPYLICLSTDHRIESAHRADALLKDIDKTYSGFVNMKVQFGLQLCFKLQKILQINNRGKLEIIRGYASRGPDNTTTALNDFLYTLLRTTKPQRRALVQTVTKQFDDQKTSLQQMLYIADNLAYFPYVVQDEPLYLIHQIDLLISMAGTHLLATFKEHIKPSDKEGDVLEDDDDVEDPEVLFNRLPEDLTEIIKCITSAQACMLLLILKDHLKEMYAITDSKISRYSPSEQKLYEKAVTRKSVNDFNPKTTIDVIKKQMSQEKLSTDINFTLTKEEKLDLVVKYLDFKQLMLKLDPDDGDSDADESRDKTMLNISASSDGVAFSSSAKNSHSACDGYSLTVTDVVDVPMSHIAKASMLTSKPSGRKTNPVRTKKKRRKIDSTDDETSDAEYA

Columns and labels:
[1] = target: T1, native TBPH (Drosophila (endogenous in BG3 cells)) (UniProt O97468); assay: co-IP; BG3 cell nuclear extract (about 300 micrograms) diluted 1:3 in Buffer 2, nominal ionic strength 183.4 mM, 0.133% NP-40; antibodies overnight at 4°, Protein A agarose, five washes; western blot; with or without 50 micrograms per mL ethidium bromide
T1 sequence: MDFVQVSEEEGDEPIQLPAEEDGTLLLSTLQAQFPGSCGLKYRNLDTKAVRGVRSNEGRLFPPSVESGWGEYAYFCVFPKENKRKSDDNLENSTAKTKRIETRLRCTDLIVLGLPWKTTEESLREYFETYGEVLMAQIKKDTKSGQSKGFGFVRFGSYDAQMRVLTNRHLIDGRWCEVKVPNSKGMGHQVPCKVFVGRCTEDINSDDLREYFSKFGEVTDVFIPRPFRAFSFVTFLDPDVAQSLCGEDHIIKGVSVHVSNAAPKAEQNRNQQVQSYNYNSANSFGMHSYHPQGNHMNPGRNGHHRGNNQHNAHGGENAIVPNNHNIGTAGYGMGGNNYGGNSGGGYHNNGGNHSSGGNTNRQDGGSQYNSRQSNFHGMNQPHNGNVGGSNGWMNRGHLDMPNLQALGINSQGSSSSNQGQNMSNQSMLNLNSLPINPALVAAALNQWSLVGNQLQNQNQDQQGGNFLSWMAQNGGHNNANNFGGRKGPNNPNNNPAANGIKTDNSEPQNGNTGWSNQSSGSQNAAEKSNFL

[2] = target: native Lark (Drosophila (endogenous in BG3 cells)) (UniProt Q94901); assay: as above
[3] = target: His6-SUMO-Lark fusion protein (full-length Lark) (Drosophila) (UniProt Q94901); assay: pull-down; His6-SUMO fusion proteins (about 5 micrograms) on NTA-Zn2+ agarose beads, casein-blocked, incubated 2 h at 4° with BG3 cell nuclear extract (about 400 micrograms; mock, Rad21-depleted, or pre-treated with RNase A and RNase T1); ionic strength >190 mM, 0.83% Triton X-100, 16.7 mM imidazole, 2% BSA; western blot for Nipped-B and Rad21; only the target purified
[4] = target: T2, His6-SUMO-TBPH fusion protein (full-length TBPH, Tar DNA binding protein homolog) (Drosophila) (UniProt O97468); assay: as above
T2 sequence: T1 sequence

[5] = target: Nipped-B (Drosophila (endogenous in BG3 cells)) (UniProt Q7PLI2); assay: co-IP; BG3 cell nuclear extract (about 300 micrograms) diluted 1:3 in Buffer 2, nominal ionic strength 183.4 mM, 0.133% NP-40; antibodies overnight at 4°, Protein A agarose, five washes; western blot; with or without 50 micrograms per mL ethidium bromide

binding [1]: no binding
Molecule: native Lark (from UniProt Q94901 1-352)

binding [2]: binds
binding [3]: binds
binding [4]: binds
Molecule: Nipped-B (from UniProt Q7PLI2 1-2077)

binding [5]: binds
B1: native TBPH (protein, UniProt O97468 1-531)
chain: T1 sequence
